Consider 47 molecules from PubChem BioAssay AID1963576 (National Center for Advancing Translational Sciences (NCATS), 2024).

The campaign covered roughly 46,000 compounds. About 60 (0.1%) were called active. Not shown: some 3% with an inconclusive outcome. Calls come from the whole dose curve; as a rule, active = well fitted inhibition curve with a large enough effect; inconclusive = small, poorly fitted or top-dose-only effect; inactive = no such curve, though single readings can be large or run the other way. The list shows a part of the results.

The test can be described thus: Primary qHTS assay for Inhibitors of ovarian cancer metastasis using an organotypic tumor microenvironment (TME) model.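 For activity change, negative = inhibition: plate controls were DMSO wells for no effect and tomatine positive control wells for full effect.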 Note: nearly all actives have a fitted effect of over 65% in size. To be noted: SKOV3ip1-GFP adhesion/invasion on 3D omental model, fluorescence; series mostly up to 45.8 µM; activity change, negative = inhibition: at the top concentration. In outline:
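qHTS, 4-pt dose (0.36-46 umol/L); SKOV3ip1-GFP, 1,200 cells/well, no FBS; primary omental fibroblast/mesothelial co-culture 48 h pre-grown; 2 h RT + 16 h 37 C; PBS wash, 4% PFA; GFP count 488/509 nm.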
As to `CCOc1ccccc1C(=O)N(Cc1ccc(N(C)C)cc1)Cc1ccco1`, the call was inactive.

In the case of `Cn1ccc2cc(S(=O)(=O)N3CCCN(C(=O)Nc4ccc(Br)cc4)CC3)ccc21`, the “activity change, negative = inhibition” value was inactive: -1.16%.

For `CCOC(=O)CCN(Cc1ccccc1)S(=O)(=O)c1csc(C(N)=O)c1`, the call was inactive.

As for `CCN(C(=O)Cn1nc2c3cc(F)ccc3n(Cc3cccc(C)c3)cc-2c1=O)c1cccc(C)c1`, the “activity change, negative = inhibition” value is inactive: -3.96%.

For the molecule `COc1ccc(NC(=O)c2c(NC(=O)COc3ccc(Cl)cc3)sc3c2CCCCC3)cc1`, the “activity change, negative = inhibition” value was inactive: -0.0777%.

Regarding `Cc1cccc(-c2nc3cc(NC(=O)Cc4ccc(Cl)cc4)ccc3o2)c1`, the “activity change, negative = inhibition” value was inactive: 0.234%.

Regarding `CC1=C(C(N)=O)C(c2cccc(C)c2)n2nc(-c3ccc(Cl)cc3)nc2N1` (configuration not stated), the “activity change, negative = inhibition” value is inactive: 0.0811%.

In the case of `CSc1ccccc1NC(=O)C1=CC(c2ccc3c(c2)OCO3)=NS(=O)(=O)N1C`, the “activity change, negative = inhibition” value is inactive: 6.97%.

Turning to `CCOc1ccc(-c2nc3c(c(CC)nn3-c3ccccc3)c3cc(OC)c(OC)cc23)cc1`, the “activity change, negative = inhibition” value is inactive: -13.7%.

In the case of `O=C(NCCCN1CCN(c2ccc(F)cc2)CC1)c1cc2c(s1)-c1ccccc1OC2`, the outcome was inactive.

Turning to `CCOC(=O)c1ccc2c(c1)N(CC(=O)Nc1cc(F)ccc1F)C(=O)c1ccccc1S2`, the “activity change, negative = inhibition” value was inactive: 6.55%.

As for `Cc1ccc(C)c(NC(=O)C(=O)NCC(c2cccnc2)N2CCN(c3ccc(F)cc3)CC2)c1` (configuration not stated), the call was inactive.

`N#Cc1cc2c(=O)n3ccccc3nc2n(-c2nnc(SCc3ccc(F)cc3)s2)c1=O`: the “activity change, negative = inhibition” value is inactive: 16.8%.

For the molecule `COc1ccc(CNC(=O)c2oc3c(c2C)-c2nn(Cc4ccccc4Cl)cc2CC3)cc1`, the result was inactive.

For the molecule `COc1ccc(Cn2nnc3c(=O)[nH]c(C4CCCN(C(=O)c5ccccc5Cl)C4)nc32)cc1OC` (configuration not stated), the “activity change, negative = inhibition” value is inactive: 1.43%.

Take `COc1cc(OC)c(NC(=O)N2CCOc3ccc(C)cc32)cc1Cl`: the “activity change, negative = inhibition” value is inactive: -5.02%.

As for `Cc1nn(CCCC(=O)NCc2ccccc2)c(=O)c2c1sc1ccccc12`, the “activity change, negative = inhibition” value is inactive: 5.03%.

On to `CCOc1ccccc1NC(=O)C1CCN(S(=O)(=O)c2ccc(Br)cc2)CC1`, for which the “activity change, negative = inhibition” value is inactive: 0.492%.

Regarding `Cc1ccc(-n2nc(C(=O)N3CCCCC3C)c(=O)n(C)c2=O)cc1` (configuration not stated), the “activity change, negative = inhibition” value is inactive: -8.68%.

In the case of `CCOC(=O)N1CCc2c(sc3c2c(=O)n(Cc2ccccc2)c(=O)n3Cc2cccc(Cl)c2)C1`, the “activity change, negative = inhibition” value was inactive: 19.8%.

`Cc1ccc(S(=O)(=O)c2cn(C)c3cc(N4CCN(c5ccccc5)CC4)c(F)cc3c2=O)cc1`: the molecule was called inactive.

Turning to `COc1cc(NC(=O)C2=C(C)Nc3nnnn3C2c2ccc(SC)cc2)c(OC)cc1Cl` (configuration not stated), the “activity change, negative = inhibition” value is inactive: 14.1%.

Regarding `COc1ccc(NC(=O)c2c(NCc3ccc(C)o3)sc3c2CCC(C)C3)cc1` (configuration not stated), the molecule was called inactive.

For `CC1CN(C(=O)CCC(=O)NCc2cccs2)c2ccccc2O1` (configuration not stated), the “activity change, negative = inhibition” value is inactive: -3.41%.

As to `Cc1ccc(CSc2nc(=O)c3c(C)cc(C)nc3n2C2CC2)cc1`, the “activity change, negative = inhibition” value was inactive: 16.9%.

For the molecule `CCOC(=O)c1cc(-c2ccc(F)cc2)n(CCC(=O)Nc2ccccc2OC)c1C`, the “activity change, negative = inhibition” value was inactive: -5.6%.

Consider `COC(=O)c1ccc2nc(C)cc(Nc3ccc(O)cc3)c2c1`, for which the “activity change, negative = inhibition” value is inactive: -22.5%.

As for `COc1ccc(NC(=O)Cn2c(=O)n(-c3ccc(Cl)cc3)c(=O)c3c(C)c(C(=O)N(C)C)sc32)cc1Cl`, the outcome was inactive.

With `O=C(NC1CC(=O)N(c2ccccc2)C1)C1CCCC1` (configuration not stated), the outcome was inactive.

Turning to `Cc1ccc2c(c1)c(=O)c1ccccc1n2CCCC(=O)Nc1ccc(F)cc1F`, the “activity change, negative = inhibition” value was inactive: -3.66%.

Take `CCOc1ccc(N2CC(c3nc4ccccc4n3CCCOc3ccc(OC)cc3)CC2=O)cc1` (configuration not stated): the “activity change, negative = inhibition” value was inactive: -1.85%.

For the molecule `COCCNC(=O)CSc1nnc(-c2ccc(OC)c(OC)c2)c(-c2ccc(OC)c(OC)c2)n1`, the “activity change, negative = inhibition” value was inactive: 1.56%.

Consider `COc1ccc(Br)c2c1-c1nc(NC(=O)c3ccccc3SC)sc1C2`, for which the outcome was inactive.

Take `O=S(=O)(c1ccccc1)c1nc(-c2cccc(Cl)c2)oc1NCc1ccccc1`: the “activity change, negative = inhibition” value was inactive: -6.81%.

Take `COc1cccc(Cc2nc3ccccc3nc2SCC(=O)N2CCc3ccccc32)c1`: the “activity change, negative = inhibition” value was inactive: -3.88%.

Regarding `CCOC(=O)c1ccc(NC(=O)C(=O)NCc2ccco2)cc1`, the “activity change, negative = inhibition” value is inactive: 9.88%.

As to `Cc1cccc(Oc2nc3c(C)cccn3c(=O)c2/C=C(\C#N)c2nc3ccccc3s2)c1`, the molecule was called inactive.

In the case of `CCOC(=O)c1ccc(NC2=CC(c3ccc(Br)cc3)N(c3ccc(C(=O)OCC)cc3)C2=O)cc1` (configuration not stated), the call was inactive.

Turning to `Cc1cccc(C2NC(=O)c3c(sc4c3CCN(C)C4)N2)c1O` (configuration not stated), the “activity change, negative = inhibition” value is inactive: -4.96%.

As for `COC(=O)c1cc(Cl)c(NC(=O)/C=C/c2ccc(Cl)cc2Cl)cc1OC`, the “activity change, negative = inhibition” value was inactive: -4.73%.

Regarding `Cc1c(C(=O)NCCN(C)C)oc2c1-c1nn(Cc3ccccc3Cl)cc1CC2`, the “activity change, negative = inhibition” value is inactive: 5.26%.

For `COc1ccc(N(CC(=O)N2CCN(c3cc(C)ccc3C)CC2)S(=O)(=O)c2c(C)noc2C)cc1`, the “activity change, negative = inhibition” value is inactive: 15.9%.

In the case of `CCOC(=O)c1ccc(Nc2nc(C)cc(C)n2)cc1`, the “activity change, negative = inhibition” value is inactive: -16.8%.

On to `CC(Sc1nc(-c2ccccc2)c(C#N)c(=O)[nH]1)C(=O)Nc1ccc(F)cc1` (configuration not stated), for which the “activity change, negative = inhibition” value is inactive: 3.8%.

In the case of `CCCCOc1ccc(S(=O)(=O)Nc2cccc(-c3ccc(N4CCOCC4)nn3)c2)cc1`, the “activity change, negative = inhibition” value was inactive: 3%.

Take `COc1ccccc1-c1c(C)nn2c(N3CCN(c4ccc(Cl)cc4)CC3)cc(C)nc12`: the “activity change, negative = inhibition” value is inactive: 3.84%.

Regarding `CCc1ccc(-c2[nH]c3c(c2-c2c(-n4cccc4)n(C)c(=O)n(C)c2=O)c(=O)n(C)c(=O)n3C)cc1`, the result was inactive.
